Measured values as given in PubChem BioAssay AID1347428 (National Center for Advancing Translational Sciences (NCATS), 2020).
Among all 91,000 compounds or so, about 290 (0.32%) were called active. Inconclusive means that the source gave no clear call. Such entries were picked first, then a sample of the others. The call rests on the fitted dose curve; in most records, active means well fitted inhibition curve with a large enough effect; inconclusive means small, poorly fitted or top-dose-only effect; inactive means no such curve, though single readings can be large or run the other way. A potency beside an inconclusive call is a rough fit, not a confirmed value.

target: Single-stranded DNA cytosine deaminase (Homo sapiens) (UniProt Q9GZX7); test: Primary qHTS assay for inhibitors of Activation Induced Cytidine Deaminase (AID): AID signal; details: AID deamination FRET fluorescence, UDG-coupled, 4 h; series mostly up to 115 µM; further: nearly all actives have a fitted effect of over 25% in size
UniProt Q9GZX7, sequence (Q9GZX7 whole entry, looked up): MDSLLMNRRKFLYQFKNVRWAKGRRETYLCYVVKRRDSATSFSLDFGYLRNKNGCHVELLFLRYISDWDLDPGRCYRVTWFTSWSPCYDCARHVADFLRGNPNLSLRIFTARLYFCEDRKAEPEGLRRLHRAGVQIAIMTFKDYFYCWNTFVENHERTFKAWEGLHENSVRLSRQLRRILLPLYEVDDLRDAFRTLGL
Potency means the concentration at half of the fitted maximal effect; tags describe the fitted curve by direction and shape.

Structure (SMILES) | Potency
CCOc1ccc(/C=C/c2nc(C#N)c(N3CCC(C)CC3)o2)cc1 | inconclusive: 35.5 µM [inhibitor, partial curve, poor fit]
CCc1ccc(Sc2cc(C(=O)NCCCN3CCC(C)CC3)c3ccccc3n2)cc1 | inconclusive: 89.1 µM [inhibitor, single point]
CCCCn1c(=O)[nH]c(=O)c2c1nc(COC(=O)c1cc(C)ccc1C)n2CCC | inconclusive: 28.2 µM [inhibitor, partial curve, poor fit]
CCn1cc(C(=O)NCCc2ccc(C)cc2)c(=O)c2cc(S(=O)(=O)N3CCC(C)CC3)ccc21 | inconclusive: 12.6 µM [inhibitor, partial curve, poor fit]
CC1=C(C(=O)Nc2ccccc2)C(c2ccc[nH]2)n2ncnc2N1 (configuration not stated) | inconclusive: 79.4 µM [inhibitor, single point]
COC(=O)c1ccc(OCC(=O)c2ccc3c(c2)OCCO3)cc1 | inactive
C(=N\Nc1ccc2ccccc2n1)/c1cccs1 | inactive
O=C(c1ccc2c(c1)N(Cc1ccc(Cl)cc1)C(=O)c1ccccc1S2=O)N1CCC(Cc2ccccc2)CC1 (configuration not stated) | inconclusive: 35.5 µM [inhibitor, partial curve, poor fit]
CCn1cc(S(=O)(=O)c2cccc(Cl)c2)c(=O)c2cc(F)c(N3CCN(C)CC3)cc21 | inconclusive: 89.1 µM [inhibitor, partial curve, poor fit]
Cc1ccccc1OCCCCn1c(CCNC(=O)C(C)(C)C)nc2ccccc21 | inconclusive: 35.5 µM [inhibitor, partial curve, poor fit]
CCCc1nc(N2CCN(CC(=O)N3CCCC3)CC2)c(C#N)c2c1CCC2 | inconclusive: 89.1 µM [inhibitor, partial curve, poor fit]
CC(C)N(Cc1ccccc1)C(=O)Cn1ncc2c3ccccc3n(Cc3ccccc3)c2c1=O | inconclusive: 2.82 µM [inhibitor, full curve, poor fit]
O=C(O)CCOc1ccc(Cl)cc1 | inactive
Cc1ccc(C)c(CN2CCCN(CC(=O)Nc3ccc(C)c(C)c3)S2(=O)=O)c1 | inconclusive: 22.4 µM [inhibitor, partial curve, poor fit]
Fc1ccc(C(NCCc2ccccc2)c2nnc(-c3ccccc3Cl)o2)cc1 (configuration not stated) | inconclusive: 70.8 µM [inhibitor, single point]
O=C(c1ccc2c(c1)N(Cc1cccc(F)c1)C(=O)c1ccccc1S2)N1CCC2(CC1)OCCO2 | inconclusive: 31.6 µM [inhibitor, full curve]
O=C(NCc1cccs1)C(c1ccccc1)c1ccccc1 | inactive
COc1ccc(C2=C(N3CCN(c4cc(C)ccc4C)CC3)c3ccccc3C2=O)cc1 | inconclusive: 14.1 µM [inhibitor, full curve, poor fit]
NCC(O)c1ccc(O)c(O)c1 (configuration not stated) | inactive
Cc1cccn2c(=O)cc(CSc3nnc(NC(=O)COc4ccccc4)s3)nc12 | inconclusive: 56.2 µM [inhibitor, partial curve, poor fit]
FC(F)(F)c1cccc(N/N=C/c2ccc(Br)cc2)c1 | inactive

Structure (SMILES) | Potency
CCCS(=O)(=O)c1ncc(Cl)c(C(=O)Nc2c(C(=O)Nc3ccccc3)oc3ccccc23)n1 | inconclusive: 50.1 µM [inhibitor, partial curve, poor fit]
COc1cccc(CNC(=O)C2CCN(C(=O)c3cnn(-c4ccccc4)c3-n3cccc3)CC2)c1 | inconclusive: 89.1 µM [inhibitor, single point]
Cn1c(=O)n(Cc2ccccc2)c(=O)c2c1nc(NCc1ccccc1)n2Cc1ccccc1 | inactive
N#CC(C(=O)c1cccs1)C(=O)C1CCCCC1 (configuration not stated) | inactive
CCOCCCNC(=O)CCc1nnc2ccc(N3CCN(c4cccc(OC)c4)CC3)nn12 | inactive
Cc1ccc(NS(=O)(=O)c2ccc3c(c2)NC(=O)CCS3)c(Br)c1 | inconclusive: 70.8 µM [inhibitor, single point]
CC(C)OCCCN1C(=O)c2[nH]nc(-c3ccccc3O)c2C1c1ccc(OCc2ccccc2)cc1 (configuration not stated) | inconclusive: 39.8 µM [inhibitor, partial curve, poor fit]
Cc1ccc(CC(=O)Nc2c(C(=O)N3CCN(c4ccccc4F)CC3)oc3ccccc23)cc1 | inconclusive: 15.8 µM [inhibitor, full curve, poor fit]
CNC(=O)c1ccc(CN(C)CCc2cccs2)cc1 | inactive
COc1ccccc1-c1nn(CCC(=O)Nc2cccc(C(C)=O)c2)c2nc(C)cc(C)c12 | inconclusive: 39.8 µM [inhibitor, single point]
COC(=O)c1ccc(Cn2c(SCc3cccc(C)c3)nc3ccncc32)cc1 | inconclusive: 35.5 µM [inhibitor, partial curve, poor fit]
COCCNC(=O)NC(=O)CN(C)Cc1cccs1 | inactive
Cc1cc(C)c(/C=C/c2onc(C)c2S(=O)(=O)N2CCC(C(=O)N3CCN(c4ccccc4)CC3)CC2)c(C)c1 | inconclusive: 89.1 µM [inhibitor, single point]
Cc1ccc2cccc(NC(=O)c3ccc(C)c(C)c3)c2n1 | inactive
CC(C)c1ccc(NC(=O)c2cccn2-c2nnc(N3CCCCC3)s2)cc1 | inconclusive: 20 µM [inhibitor, full curve, poor fit]
O=S(=O)(c1cc(F)cc(F)c1)N1CCCC1c1nnc2ccccn12 (configuration not stated) | inactive
COc1ccc(N(Cc2ccccc2)C(=O)c2nc(SC)ncc2Cl)cc1 | inconclusive: 17.8 µM [inhibitor, full curve, poor fit]
COc1ccc(C(=O)C(C)OC(=O)c2cc(OC)cc(OC)c2)cc1 (configuration not stated) | inactive
O=C(Cc1ccc(Br)cc1)Nc1cccc2ncccc12 | inactive
Cc1ccc(NC(=O)CC2Nc3cccc4cccc(c34)NC2=O)cc1 (configuration not stated) | inconclusive: 56.2 µM [inhibitor, partial curve, poor fit]
COc1ccc(Cl)cc1NC(=O)CCCn1c(C)c2cnn(-c3ccccc3)c(=O)c2c1C | inconclusive: 25.1 µM [inhibitor, partial curve]
